Measurements reported in PubChem BioAssay (NCATS).
Several values for one entry are separate records, joined by “and”; a condition that tells them apart may be missing. Equal values may be shown once. Inconclusive results, whose numbers are uncertain, are shown with a selection of clear calls. No potency is given beside an inconclusive call; the fits are too rough. Activity calls are given as the source filed them. Calls come from the whole dose curve; as a rule, active = well fitted cell-killing curve with a large enough effect; inconclusive = small, poorly fitted or top-dose-only effect, or effect the other way; inactive = no such curve, though single readings can be large or run the other way.

test: Viability qHTS for spleen associated tyrosine kinase inhibitor (SYKi) drug resistant MV4-11 cells (AID 1963824); details: SYKi-resistant MV4-11 viability, CellTiter-Glo, 72 h; series mostly up to 45 µM; note: nearly all actives have a fitted effect of over 35% in size
Procedure, shortened: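 SYK inhibitor-resistant MV4-11 AML cells, 500 per well, added to predispensed compounds and incubated 72 hr at 37 C, 5% CO2. Viability measured by CellTiter-Glo luminescence after 10 min at room temperature.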
Potency is the fitted concentration of half-maximal effect; tags give direction and shape of the fitted curve.

Row | Structure (SMILES) | Potency | viability, % of control
1 | N=C1CCCN1Cc1[nH]c(=O)[nH]c(=O)c1Cl | inactive | 
2 | Cn1c([N+](=O)[O-])cnc1COC(N)=O | inactive | 
3 | CN1CCN2c3ncccc3Cc3ccccc3C2C1 (configuration not stated) | inconclusive [cytotoxic, partial curve, poor fit] | 
4 | CCCCCCCCCCOc1cc2c(=O)c(C(=O)OCC)c[nH]c2cc1OCC |  | inactive: 107% [at 4.97 µM]
5 | N#CN1CCC[C@@H](n2nc(-c3ccc(Oc4ccc(F)cc4F)cc3)c(C(N)=O)c2N)C1 | active: 18.6 µM | 
6 | NCCCC(N)CC(=O)NCC1NC(=O)C(CO)NC(=O)C(N)CNC(=O)C(C2CCN=C(N)N2)NC(=O)C(=CNC(N)=O)NC1=O (configuration not stated) |  | inactive: 101% [at 0.588 µM]
7 | CSc1ccc(/C=C2/C(C)=C(CC(=O)O)c3cc(F)ccc32)cc1 | inconclusive [cytotoxic, single point] | 
8 | O=C(Nc1ncc(SCCN2CCCC2)s1)[C@]1(c2ccc(S(=O)(=O)C3CC3)cc2)C[C@H]1C1CCCCC1 | active: 8.33 µM | 
9 | CCN(CC)CCNc1ccc(C)c2sc3ccccc3c(=O)c12 | active: 7.42 µM | 
10 | Clc1ccc2nsnc2c1NC1=NCCN1 | inconclusive [rising, full curve] | 
11 | CCOC(=O)c1ccc(N)cc1 | inactive | 
12 | N#CSCC(=O)O | inconclusive [cytotoxic, partial curve, poor fit] | 
13 | CC[C@H](C)[C@@H]([C@@H](CC(=O)N1CCC[C@H]1[C@H](OC)[C@@H](C)C(=O)N[C@@H](Cc1ccccc1)c1nccs1)OC)N(C)C(=O)[C@@H](NC(=O)[C@H](C(C)C)N(C)C)C(C)C | inactive | 
14 | O=c1[nH]c(=O)c2ccccc2o1 | inactive | 
15 | O=C(c1ccc(F)cc1)N1CCC[C@H](c2nc(-c3ccc(F)cc3)no2)C1 | active: 11.8 µM | 
16 | CCCCCCCCCCCCCCCCN | inactive | 
17 | COc1ccc(NS(=O)(=O)c2ccc(N)cc2)nn1 | inactive | 
18 | COc1cc(N2CCN(C)CC2)ccc1Nc1nccc(-c2cn(C)c3cnccc23)n1 | active: 517 nM and active: 590 nM | 
19 | CN(C)/C(N)=N/C(=N)N | inactive | 

Row | Structure (SMILES) | Potency | viability, % of control
20 | Cc1nnc(C[C@@H]2C=C(c3ccc(Cl)cc3)c3ccccc3-n3c(C)nnc32)o1 | active: 0.296 µM | 
21 | CCN(Cc1ccncc1)C(=O)C(CO)c1ccccc1 (configuration not stated) | inactive | 
22 | C[C@@H](Oc1cc(C(=O)Nc2ccc(C(=O)N3CCN(C)CC3)cc2)nnc1N)c1c(Cl)ccc(F)c1Cl | active: 2.63 µM | 
23 | COC1(c2sc3c(N4CCOCC4)nc(-c4cnc(N)nc4)nc3c2C)COC1 | active: 0.411 µM | 
24 | CONC(=O)c1ccccc1Nc1cc(Nc2cc(C)nn2C(C)C)ncc1Cl | active: 13.2 µM | 
25 | CN(C)CC[C@@H](c1ccc(Cl)cc1)c1ccccn1 | inactive | 
26 | OCCOc1ccc(/C(=C(/CCCl)c2ccccc2)c2ccccc2)cc1 | inconclusive [cytotoxic, partial curve] | 
27 | CN(CCCN1c2ccccc2CCc2ccccc21)CC(=O)c1ccc(Cl)cc1 | active: 13.3 µM | 
28 | CN1CCN(c2ccc(-c3cccc(CN4CCOCC4)c3)cc2NC(=O)c2c[nH]c(=O)cc2C(F)(F)F)CC1 | inconclusive [cytotoxic, partial curve] | 
29 | COc1ccc2[nH]c(S(=O)Cc3ncc(C)c(OC)c3C)nc2c1 (configuration not stated) | active: 1.64 µM | 
30 | O=C(NCCCNC(=O)c1ccc[nH]c1=O)c1cc(-c2ccccc2)on1 | active: 4.68 µM | 
31 | COc1cc(-c2cc(-c3ccc(N4CCNCC4)cc3)cnc2C)cc(OC)c1OC | active: 8.33 µM | 
32 | C[C@]12CC[C@@H]3c4ccc(O)cc4CC[C@H]3[C@@H]1CC[C@@H]2O | active: 14.8 µM | 
33 | C#C[C@]1(OC(C)=O)CC[C@H]2[C@@H]3CCC4=C/C(=N/O)CC[C@@H]4[C@H]3CC[C@@]21CC | inconclusive [cytotoxic, single point] | 
34 | COc1c(Nc2ncc(Cl)c(N[C@H]3[C@H](C(N)=O)[C@@H]4C=C[C@@H]3C4)n2)ccc2c1CCC(N1CCOCC1)CC2 (some centres not stated) | active: 0.366 µM | 
35 | CC(C)Oc1ccc(-c2nc(-c3cccc4c3CC[C@@H]4NCCO)no2)cc1C#N | active: 11.8 µM | 
36 | COc1cc(OC)cc(N(CCNC(C)C)c2ccc3ncc(-c4cnn(C)c4)nc3c2)c1 | active: 4.11 µM | 
37 | Cc1ccc(/C=N/n2c(-c3ccccc3)csc2=S)cc1 | inconclusive [cytotoxic, single point] | 
